Data on one molecule can be found in patent publication US20250179192A1 (PHARMABCINE, published 2025).

One assay concerns the target T1, VEGFR2 (KDR) on HUVECs (human, UniProt P35968).
T1 construct: Endogenous receptor on HUVECs; also called KDR (VEGFR-2)
The assay can be described thus: FACS on HUVECs, 5 nM, anti-human IgG-PE secondary; secondary only 65.7. The procedure: To determine the binding activity of the fusion protein to HUVECs, FACS analysis was performed using the fusion protein and control antibodies (6A6, 6A6×DLL4, D4, Minod-Fc).
Specifically, HUVECs (LONZA, Cat No. C2519A) were cultured at 37° C. and 5% CO₂ using a plate coated with 2% gelatin and VascuLife medium complete kit (Lifeline Cell Technology, Cat No. #LCT-LL-0005). The cells were prepared at a concentration of 2×10⁷ cells/ml in FACS buffer (0.5% FBS, 0.05% sodium azide in PBS) and dispensed at 50 μl into each of FACS tubes. 100 μl of each antibody at a concentration of 5 nM was mixed in the FACS tube, followed by reaction at 4° C. for 30 minutes. After completion of reaction, 2 ml of FACS buffer was added to each tube, followed by centrifugation at 1500 rpm for 3 minutes. The supernatant was removed, the cells were resuspended, and 100 μl of anti-human IgG-PE antibody (1:200, Bethyl, #A80-248PE) was added, followed by reaction at 4° C. for 20 minutes. 2 ml of FACS buffer was added to each FACS tube, followed by centrifugation at 1500 rpm for 3 minutes. The separated supernatant was removed, the cells were resuspended in 200 μl of FACS buffer, and the binding activity was analyzed using FACS (Beckton Dickinson, Lyric).

The target of a further assay is T2, hDLL4 (human, UniProt Q9NR61 fragment, limits assumed).
T2 construct: Analyte in SPR; also called human delta-like ligand 4 (soluble antigen protein)
Kind of assay: SPR Biacore T200, fusion protein captured on Protein A chip, antigen as analyte, 1:1 model. The method, then:
(§1) The binding ability of the selected fusion protein to the antigen was measured using SPR (Biacore T200, Cytiva). The fusion protein was captured and analyzed using the antigen protein as an analyte. Using a Protein A chip, the fusion protein was immobilized on the surface according to the manufacturer's instructions. The fusion protein on the sensor chip was diluted with PBS-T running buffer to a concentration of 5 μg/ml and injected at a flow rate of 10 μl/min to reach about 200 RU. The antigen was diluted with PBS-T running buffer by concentration and injected at a flow rate of 30 μl/min for 4 minutes, and the dissociation time was set to 10 minutes. To remove the fusion protein bound every cycle, a regeneration solution (10 mM glycine-HCl, pH 1.5) was injected at a flow rate of 30 μl/min for 1 minute. The experimental results were calculated using the 1:1 binding model of BIA evaluation software version 1.0.

Another assay addresses T3, hKDR-ECD (human, UniProt P35968 20-764).
T3 construct: extracellular domain; Analyte in SPR; also called human KDR (VEGFR-2) extracellular domain
Described as above. The procedure: as §1

Assay [1] concerns the target T4, hDLL4 expressed on HEK293 cells (human, UniProt Q9NR61 27-685).
T4 construct: whole, on cells; also called DLL4-overexpressed HEK293 cells
Kind of assay: FACS on hDLL4-overexpressing HEK293 cells (293-DLL4), 5 nM, anti-human IgG-PE secondary; secondary only 82.0. The method, then:
Specifically, the pcDNA-hDLL4 vector synthesized by GeneArt was transfected into HEK293 cells using Lipofectamin™ 2000 (Invitrogen #1168-019, USA), and neomycin (Gibco #10131, 50 mg/ml) was added for selection. Then, all grown cells were collected and cultured in a pool state. Then, 23 types of single colonies were obtained by culture using a limiting dilution method, and among the single colonies, one type of cell line that highly overexpressed hDLL4 was selected and tested. The selected cells were prepared to a concentration of 2×10⁷ cells/ml in FACS buffer (0.5% FBS, 0.05% sodium azide in PBS) and dispensed at 50 μl into each of FACS tubes. 5 nM fusion protein and control antibodies (6A6, 6A6×DLL4, D4, D4×DLL4, Minod-Fc) were added in 100 μl to each of the FACS tubes containing the cells, followed by reaction at 4° C. for 30 minutes. After completion of reaction, 2 ml of FACS buffer was added to each tube, followed by centrifugation at 1500 rpm for 3 minutes. The supernatant was removed, the cells were well resuspended, and then 100 μl of anti-human IgG-PE antibody (1:200, […], #A80-248PE) was added, followed by reaction at 4° C. for 20 minutes. […] The separated supernatant was removed, the cells were resuspended in 200 μl of FACS buffer, and the binding activity was analyzed using FACS (Beckton Dickinson, Lyric).

Sequence of hKDR-ECD (P35968 20-764): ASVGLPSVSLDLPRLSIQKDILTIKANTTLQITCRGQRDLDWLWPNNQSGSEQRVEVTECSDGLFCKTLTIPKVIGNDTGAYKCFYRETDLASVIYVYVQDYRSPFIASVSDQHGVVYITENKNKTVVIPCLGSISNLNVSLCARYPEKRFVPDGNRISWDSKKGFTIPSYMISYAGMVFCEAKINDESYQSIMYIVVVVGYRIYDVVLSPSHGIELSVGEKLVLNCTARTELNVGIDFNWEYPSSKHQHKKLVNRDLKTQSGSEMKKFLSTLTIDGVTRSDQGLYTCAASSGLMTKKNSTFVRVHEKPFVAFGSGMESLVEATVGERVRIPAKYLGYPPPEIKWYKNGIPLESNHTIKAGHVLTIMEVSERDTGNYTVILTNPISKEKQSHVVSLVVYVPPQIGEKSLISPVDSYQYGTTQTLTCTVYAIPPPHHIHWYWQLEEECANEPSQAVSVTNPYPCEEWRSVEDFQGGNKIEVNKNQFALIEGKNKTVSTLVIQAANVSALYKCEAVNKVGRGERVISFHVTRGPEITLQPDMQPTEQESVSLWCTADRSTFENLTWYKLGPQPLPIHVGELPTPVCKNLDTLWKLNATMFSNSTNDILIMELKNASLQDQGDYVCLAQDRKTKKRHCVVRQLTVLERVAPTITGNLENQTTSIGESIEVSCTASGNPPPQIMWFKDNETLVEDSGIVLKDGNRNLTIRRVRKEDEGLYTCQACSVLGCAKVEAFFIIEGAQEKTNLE
Sequence of hDLL4 (Q9NR61 27-524 limits assumed): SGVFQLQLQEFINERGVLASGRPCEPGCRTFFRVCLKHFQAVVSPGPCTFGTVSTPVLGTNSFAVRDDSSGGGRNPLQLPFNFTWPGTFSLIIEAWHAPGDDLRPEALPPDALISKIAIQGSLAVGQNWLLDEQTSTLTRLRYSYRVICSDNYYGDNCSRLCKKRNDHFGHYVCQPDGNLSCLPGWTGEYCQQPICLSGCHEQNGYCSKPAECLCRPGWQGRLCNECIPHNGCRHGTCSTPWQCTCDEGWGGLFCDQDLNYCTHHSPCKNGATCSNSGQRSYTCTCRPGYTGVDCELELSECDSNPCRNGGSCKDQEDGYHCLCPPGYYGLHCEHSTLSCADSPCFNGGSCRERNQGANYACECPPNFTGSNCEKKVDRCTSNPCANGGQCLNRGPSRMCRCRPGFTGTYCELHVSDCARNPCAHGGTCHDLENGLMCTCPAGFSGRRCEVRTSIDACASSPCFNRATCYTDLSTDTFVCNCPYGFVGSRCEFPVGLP
Sequence of VEGFR2 (KDR) on HUVECs (P35968 20-1356 limits assumed): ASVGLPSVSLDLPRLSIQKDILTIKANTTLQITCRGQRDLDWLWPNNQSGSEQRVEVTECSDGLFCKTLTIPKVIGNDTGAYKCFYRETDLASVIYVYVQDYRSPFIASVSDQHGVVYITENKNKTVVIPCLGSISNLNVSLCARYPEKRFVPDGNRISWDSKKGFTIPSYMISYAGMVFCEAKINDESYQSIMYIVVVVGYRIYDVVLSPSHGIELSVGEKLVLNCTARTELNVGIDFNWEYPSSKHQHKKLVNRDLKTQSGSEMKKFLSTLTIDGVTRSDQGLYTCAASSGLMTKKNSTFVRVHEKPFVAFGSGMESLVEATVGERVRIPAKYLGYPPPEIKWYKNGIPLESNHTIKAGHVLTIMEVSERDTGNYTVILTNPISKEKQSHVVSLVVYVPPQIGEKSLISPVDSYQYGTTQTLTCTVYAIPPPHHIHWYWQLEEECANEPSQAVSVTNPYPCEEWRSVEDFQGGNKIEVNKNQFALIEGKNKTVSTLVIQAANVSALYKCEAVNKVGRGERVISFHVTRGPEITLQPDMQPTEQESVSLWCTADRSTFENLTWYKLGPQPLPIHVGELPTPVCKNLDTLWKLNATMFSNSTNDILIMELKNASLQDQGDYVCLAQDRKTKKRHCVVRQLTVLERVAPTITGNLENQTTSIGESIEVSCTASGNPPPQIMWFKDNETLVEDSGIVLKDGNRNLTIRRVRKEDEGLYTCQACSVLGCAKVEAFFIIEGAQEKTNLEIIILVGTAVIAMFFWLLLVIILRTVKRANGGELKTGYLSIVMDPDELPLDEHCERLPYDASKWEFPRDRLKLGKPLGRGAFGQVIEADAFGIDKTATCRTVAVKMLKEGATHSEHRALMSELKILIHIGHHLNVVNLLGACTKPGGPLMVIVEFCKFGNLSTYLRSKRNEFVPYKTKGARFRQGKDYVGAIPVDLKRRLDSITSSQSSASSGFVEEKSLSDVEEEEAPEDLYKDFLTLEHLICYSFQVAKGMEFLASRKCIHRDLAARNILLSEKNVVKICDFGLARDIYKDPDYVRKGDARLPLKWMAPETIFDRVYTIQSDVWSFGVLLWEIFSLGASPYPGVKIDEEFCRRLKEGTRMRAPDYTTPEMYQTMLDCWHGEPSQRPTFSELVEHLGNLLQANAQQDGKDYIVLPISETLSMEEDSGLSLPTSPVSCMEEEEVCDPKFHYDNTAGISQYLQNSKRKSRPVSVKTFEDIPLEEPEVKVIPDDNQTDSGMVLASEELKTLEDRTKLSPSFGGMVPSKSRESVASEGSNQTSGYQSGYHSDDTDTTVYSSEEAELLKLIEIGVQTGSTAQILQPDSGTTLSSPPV

B1: D4×DLL4 fusion protein (bispecific antibody, IgG1)
heavy: EVQLVESGGGLVQPGGSLRLSCAASGYTFSSYWMSWVRQAPGKGLEWVSEINPGNGHTNYNEKFKSRFTISRDKSKNTLYLQMNSLRAEDTAVYYCARHWGPSLTSPFDYWGQGTLVTVSS[sequence of human IgG1 constant region omitted]
light: not shown
notes: also called D4xDLL4; the fusion protein
As to B1, the “Geometric Mean : PE-A” value with VEGFR2 (KDR) on HUVECs was determined as 436. Further, in the assay with hDLL4, binding was characterised by a dissociation constant (Kd) of 1.14 nM; the Pmax was determined as 75; the dissociation rate constant (koff) (as a rule, a measure of how fast the partners let go of each other) turned out to be 0.000105 s⁻¹; the kon (in general, a measure of how fast the partners come together) was found to be 92300 M⁻¹ s⁻¹. For the same molecule, in the assay with hKDR-ECD, the Kd – broadly, the free concentration of one partner at which half of the binding sites on the other are occupied at equilibrium, for simple one-to-one binding – was 0.726 nM; the Pmax came out at 411; the koff amounted to 6.74e-05 s⁻¹; the kon was found to be 92800 M⁻¹ s⁻¹. Besides, the “Geometric Mean : PE-A” value in assay [1] was found to be 954.
